Source: the supplement of paper PMC8728848
The other results are listed elsewhere or left out.

Key:
Assay in all cases: glycan array binding signal (z-score within array); higher = stronger binding
Details in all cases: glycan notation: IUPAC condensed, linker removed
Gal(b1-2)Gal = target: Gal(b1-2)Gal
Method in brief: (§1)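 Columns mapping to the same glycan were averaged after glycan names were converted to IUPAC-condensed notation. The data come from 3228 arrays in the Consortium for Functional Glycomics database, limited to those with an available protein sequence. Binding is reported as a within-array Z-score averaged across arrays of one protein sequence and across linkers.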

Gal(b1-3)Gal = target: Gal(b1-3)Gal
Method in brief: as §1

Gal(b1-3)Gal(b1-4)GlcNAc = target: Gal(b1-3)Gal(b1-4)GlcNAc
Method in brief: as §1

Gal(b1-3)GalNAc = target: Gal(b1-3)GalNAc
Method in brief: as §1

[1] = target: Gal(b1-3)GalNAc(a1-3)[Fuc(a1-2)]Gal(b1-4)Glc
Method in brief: as §1

[2] = target: Gal(b1-3)GalNAc(a1-3)[Fuc(a1-2)]Gal(b1-4)GlcNAc
Method in brief: as §1

Gal(b1-3)GalNAc(b1-3)Gal = target: Gal(b1-3)GalNAc(b1-3)Gal
Method in brief: as §1

[3] = target: Gal(b1-3)GalNAc(b1-3)Gal(a1-4)Gal(b1-4)Glc
Method in brief: as §1

[4] = target: Gal(b1-3)GalNAc(b1-4)Gal(b1-4)Glc
Method in brief: as §1

[5] = target: Gal(b1-3)GalNAc(b1-4)[Neu5Ac(a2-3)]Gal(b1-4)Glc
Method in brief: as §1

Gal(b1-3)GlcNAc = target: Gal(b1-3)GlcNAc
Method in brief: as §1

[6] = target: Gal(b1-3)GlcNAc(a1-3)Gal(b1-4)GlcNAc
Method in brief: as §1

[7] = target: Gal(b1-3)GlcNAc(a1-6)Gal(b1-4)GlcNAc
Method in brief: as §1

Gal(b1-3)GlcNAc(b1-2)Man = target: Gal(b1-3)GlcNAc(b1-2)Man
Method in brief: as §1

[8] = target: Gal(b1-3)GlcNAc(b1-2)Man(a1-3)[Gal(b1-3)GlcNAc(b1-2)Man(a1-6)]Man(b1-4)GlcNAc(b1-4)GlcNAc
Method in brief: as §1

[9] = target: Gal(b1-3)GlcNAc(b1-2)Man(a1-3)[Gal(b1-3)GlcNAc(b1-2)Man(a1-6)]Man(b1-4)GlcNAc(b1-4)[Fuc(a1-6)]GlcNAc
Method in brief: as §1

[10] = target: Gal(b1-3)GlcNAc(b1-2)Man(a1-3)[GlcNAc(b1-4)][Gal(b1-3)GlcNAc(b1-2)Man(a1-6)]Man(b1-4)GlcNAc(b1-4)GlcNAc
Method in brief: as §1

[11] = target: Gal(b1-3)GlcNAc(b1-2)[Gal(b1-3)GlcNAc(b1-6)]Man(a1-6)[Gal(b1-3)GlcNAc(b1-2)Man(a1-3)]Man(b1-4)GlcNAc(b1-4)GlcNAc
Method in brief: as §1

[12] = target: Gal(b1-3)GlcNAc(b1-3)Gal(b1-3)GlcNAc
Method in brief: as §1

[13] = target: Gal(b1-3)GlcNAc(b1-3)Gal(b1-4)Glc
Method in brief: as §1

[14] = target: Gal(b1-3)GlcNAc(b1-3)Gal(b1-4)GlcNAc
Method in brief: as §1

[15] = target: Gal(b1-3)GlcNAc(b1-3)Gal(b1-4)GlcNAc(b1-2)Man(a1-3)[Gal(b1-3)GlcNAc(b1-3)Gal(b1-4)GlcNAc(b1-2)Man(a1-6)]Man(b1-4)GlcNAc(b1-4)GlcNAc
Method in brief: as §1

[16] = target: Gal(b1-3)GlcNAc(b1-3)Gal(b1-4)GlcNAc(b1-2)[Gal(b1-3)GlcNAc(b1-3)Gal(b1-4)GlcNAc(b1-6)]Man(a1-6)[Gal(b1-3)GlcNAc(b1-3)Gal(b1-4)GlcNAc(b1-2)Man(a1-3)]Man(b1-4)GlcNAc(b1-4)[Fuc(a1-6)]GlcNAc
Method in brief: as §1

[17] = target: Gal(b1-3)GlcNAc(b1-3)Gal(b1-4)GlcNAc(b1-3)Gal(b1-4)GlcNAc(b1-2)[Gal(b1-3)GlcNAc(b1-3)Gal(b1-4)GlcNAc(b1-3)Gal(b1-4)GlcNAc(b1-6)]Man(a1-6)[Gal(b1-3)GlcNAc(b1-3)Gal(b1-4)GlcNAc(b1-3)Gal(b1-4)GlcNAc(b1-2)Man(a1-3)]Man(b1-4)GlcNAc(b1-4)[Fuc(a1-6)]GlcNAc
Method in brief: as §1

[18] = target: Gal(b1-3)GlcNAc(b1-3)Gal(b1-4)GlcNAc(b1-6)[Gal(b1-3)GlcNAc(b1-3)]Gal(b1-4)Glc
Method in brief: as §1

[19] = target: Gal(b1-3)GlcNAc(b1-3)Gal(b1-4)[Fuc(a1-3)]GlcNAc
Method in brief: as §1

[20] = target: Gal(b1-3)GlcNAc(b1-3)Gal(b1-4)[Fuc(a1-3)]GlcNAc(b1-6)[Gal(b1-3)GlcNAc(b1-3)]Gal(b1-4)Glc
Method in brief: as §1

[21] = target: Gal(b1-3)GlcNAc(b1-3)GalNAc
Method in brief: as §1

[22] = target: Gal(b1-3)GlcNAc(b1-6)Gal(b1-4)GlcNAc
Method in brief: as §1

[23] = target: Gal(b1-3)GlcNAc(b1-6)GalNAc
Method in brief: as §1

[24] = target: Gal(b1-3)GlcNAc(b1-6)[Gal(b1-3)]GalNAc
Method in brief: as §1

Gal(b1-3)GlcNAc6S = target: Gal(b1-3)GlcNAc6S
Method in brief: as §1

[25] = target: Gal(b1-3)[Fuc(a1-4)]GlcNAc
Method in brief: as §1

[26] = target: Gal(b1-3)[Fuc(a1-4)]GlcNAc(b1-2)Man
Method in brief: as §1

[27] = target: Gal(b1-3)[Fuc(a1-4)]GlcNAc(b1-2)Man(a1-3)[Gal(b1-3)[Fuc(a1-4)]GlcNAc(b1-2)Man(a1-6)]Man(b1-4)GlcNAc(b1-4)[Fuc(a1-6)]GlcNAc
Method in brief: as §1

[28] = target: Gal(b1-3)[Fuc(a1-4)]GlcNAc(b1-3)Gal(b1-3)[Fuc(a1-4)]GlcNAc
Method in brief: as §1

[29] = target: Gal(b1-3)[Fuc(a1-4)]GlcNAc(b1-3)Gal(b1-4)[Fuc(a1-3)]GlcNAc
Method in brief: as §1

[30] = target: Gal(b1-3)[Fuc(a1-4)]GlcNAc(b1-6)GalNAc
Method in brief: as §1

[31] = target: Gal(b1-3)[GlcNAc(b1-6)]GalNAc
Method in brief: as §1

[32] = target: Gal(b1-3)[Neu5Ac(a2-6)]GalNAc
Method in brief: as §1

[33] = target: Gal(b1-3)[Neu5Ac(a2-6)]GlcNAc(b1-4)Gal(b1-4)Glc
Method in brief: as §1

[34] = target: Gal(b1-3)[Neu5Ac(b2-6)]GalNAc
Method in brief: as §1

Gal(b1-4)Gal = target: Gal(b1-4)Gal
Method in brief: as §1

[35] = target: Gal(b1-4)GalNAc(a1-3)[Fuc(a1-2)]Gal(b1-4)GlcNAc
Method in brief: as §1

[36] = target: Gal(b1-4)GalNAc(b1-3)[Fuc(a1-2)]Gal(b1-4)GlcNAc
Method in brief: as §1

B1: AT1G15820(NC) (Arabidopsis thaliana) (protein)
chain: MAMAVSGAVLSGLGSSFLTGGKRGATALASGVGDAIAPFSFGSLLGTQLLLMGWVESKRWVDFFNPDSQSVEWATPWSKTAENFANYTGDQGYPGGRFFDPLGLAGKNRDGVYEPDFEKLERLKLAEIKHSRLAMVAMLIFYFEAGQGKTPLGALGL
- glycan array binding signal (z-score) (Gal(b1-2)Gal): -0.279
- glycan array binding signal (z-score) (Gal(b1-3)Gal): -0.352
- glycan array binding signal (z-score) (Gal(b1-3)Gal(b1-4)GlcNAc): 0.208
- glycan array binding signal (z-score) (Gal(b1-3)GalNAc): -0.096
- glycan array binding signal (z-score) [1]: 2.08
- glycan array binding signal (z-score) [2]: -0.432
- glycan array binding signal (z-score) (Gal(b1-3)GalNAc(b1-3)Gal): 0.019
- glycan array binding signal (z-score) [3]: -0.402
- glycan array binding signal (z-score) [4]: 0.284
- glycan array binding signal (z-score) [5]: -0.418
- glycan array binding signal (z-score) (Gal(b1-3)GlcNAc): 1.38
- glycan array binding signal (z-score) [6]: -0.572
- glycan array binding signal (z-score) [7]: -0.36
- glycan array binding signal (z-score) (Gal(b1-3)GlcNAc(b1-2)Man): -0.381
- glycan array binding signal (z-score) [8]: -0.27
- glycan array binding signal (z-score) [9]: -0.259
- glycan array binding signal (z-score) [10]: -0.228
- glycan array binding signal (z-score) [11]: -0.564
- glycan array binding signal (z-score) [12]: -0.338
- glycan array binding signal (z-score) [13]: -0.109
- glycan array binding signal (z-score) [14]: -0.483
- glycan array binding signal (z-score) [15]: 0.225
- glycan array binding signal (z-score) [16]: 0.13
- glycan array binding signal (z-score) [17]: -0.214
- glycan array binding signal (z-score) [18]: 5.77
- glycan array binding signal (z-score) [19]: 0.419
- glycan array binding signal (z-score) [20]: 0.118
- glycan array binding signal (z-score) [21]: -0.541
- glycan array binding signal (z-score) [22]: -0.987
- glycan array binding signal (z-score) [23]: 0.191
- glycan array binding signal (z-score) [24]: -0.208
- glycan array binding signal (z-score) (Gal(b1-3)GlcNAc6S): -0.528
- glycan array binding signal (z-score) [25]: -0.085
- glycan array binding signal (z-score) [26]: -0.282
- glycan array binding signal (z-score) [27]: -0.354
- glycan array binding signal (z-score) [28]: -0.178
- glycan array binding signal (z-score) [29]: -0.458
- glycan array binding signal (z-score) [30]: -0.308
- glycan array binding signal (z-score) [31]: 0.205
- glycan array binding signal (z-score) [32]: -0.282
- glycan array binding signal (z-score) [33]: -0.408
- glycan array binding signal (z-score) [34]: 0.305
- glycan array binding signal (z-score) (Gal(b1-4)Gal): -0.398
- glycan array binding signal (z-score) [35]: -0.621
- glycan array binding signal (z-score) [36]: -0.535
